# Measured values published in the supplement of paper PMC8728848.
# The other results are listed elsewhere or left out.
# B1: MGL6A (Homo sapiens) (protein)
# chain: MTRTYENFQYLENKVKVQGFKNGPLPLQSLLQRLCSGPCHLLLSLGLGLLLLVIICVVGFQNSKFQRDLVTLRTDFSNFTSNTVAEIQALTSQGSSLEETIASLKAEVEGFKQERQAVHSEMLLRVQQLVQDLKKLTCQVATLNNNGEEASTEGTCCPVNWVEHQDSCYWFSHSGMSWAEAEKYCQLKNAHLVVINSREEQNFVQKYLGSAYTWMGLSDPEGAWKWVDGTDYATGFQNWKPGQPDDWQGHGLGGGEDCAHFTPDGRWNDDVCQRPYHWVCEAGLGQTSQESH
# Experiments:
# Test in all cases: glycan array binding signal (z-score within array); higher = stronger binding
# Conditions in all cases: glycan notation: IUPAC condensed, linker removed; mutation: H262T
# [1] = target: Fuc(a1-2)Gal(b1-4)GlcNAc(b1-3)Gal(b1-4)GlcNAc(b1-2)Man(a1-3)[Fuc(a1-2)Gal(b1-4)GlcNAc(b1-3)Gal(b1-4)GlcNAc(b1-2)Man(a1-6)]Man(b1-4)GlcNAc(b1-4)GlcNAc
# Summary of the method: (§1)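 Negative Z-scores can be read as non-binding. The Z-score is calculated within each array and then averaged across arrays of one protein sequence at different concentrations or buffers and across linkers. Arrays, 3228 in all, were curated from the Consortium for Functional Glycomics database and kept only where the protein sequence was available.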
# [2] = target: Fuc(a1-2)Gal(b1-4)GlcNAc(b1-3)Gal(b1-4)GlcNAc(b1-3)Gal(b1-4)GlcNAc
# Summary of the method: as §1
# [3] = target: Fuc(a1-2)Gal(b1-4)GlcNAc(b1-3)GalNAc
# Summary of the method: as §1
# [4] = target: Fuc(a1-2)Gal(b1-4)GlcNAc(b1-3)[Fuc(a1-2)Gal(b1-4)GlcNAc(b1-6)]GalNAc
# Summary of the method: as §1
# [5] = target: Fuc(a1-2)Gal(b1-4)GlcNAc(b1-3)[Fuc(a1-3)[Gal(b1-4)]GlcNAc(b1-6)]Gal(b1-4)Glc
# Summary of the method: as §1
# [6] = target: Fuc(a1-2)Gal(b1-4)GlcNAc(b1-6)GalNAc
# Summary of the method: as §1
# [7] = target: Fuc(a1-2)Gal(b1-4)GlcNAc6S
# Summary of the method: as §1
# [8] = target: Fuc(a1-2)Gal(b1-4)[Fuc(a1-3)]GlcNAc
# Summary of the method: as §1
# [9] = target: Fuc(a1-2)Gal(b1-4)[Fuc(a1-3)]GlcNAc(b1-2)Man(a1-3)[Fuc(a1-2)Gal(b1-4)[Fuc(a1-3)]GlcNAc(b1-2)Man(a1-6)]Man(b1-4)GlcNAc(b1-4)[Fuc(a1-6)]GlcNAc
# Summary of the method: as §1
# [10] = target: Fuc(a1-2)Gal(b1-4)[Fuc(a1-3)]GlcNAc(b1-2)[Fuc(a1-2)Gal(b1-4)[Fuc(a1-3)]GlcNAc(b1-4)]Man(a1-3)[Fuc(a1-2)Gal(b1-4)[Fuc(a1-3)]GlcNAc(b1-2)Man(a1-6)]Man(b1-4)GlcNAc(b1-4)GlcNAc
# Summary of the method: as §1
# [11] = target: Fuc(a1-2)Gal(b1-4)[Fuc(a1-3)]GlcNAc(b1-3)Gal(b1-4)[Fuc(a1-3)]GlcNAc
# Summary of the method: as §1
# [12] = target: Fuc(a1-2)Gal(b1-4)[Fuc(a1-3)]GlcNAc(b1-3)Gal(b1-4)[Fuc(a1-3)]GlcNAc(b1-3)Gal(b1-4)[Fuc(a1-3)]GlcNAc
# Summary of the method: as §1
# [13] = target: Fuc(a1-2)Gal(b1-4)[Fuc(a1-3)]GlcNAc(b1-3)GalNAc
# Summary of the method: as §1
# [14] = target: Fuc(a1-2)Gal(b1-4)[Fuc(a1-3)]GlcNAc(b1-3)[Neu5Ac(a2-6)Gal(b1-4)GlcNAc(b1-6)]Gal(b1-4)Glc
# Summary of the method: as §1
# [15] = target: Fuc(a1-2)Gal3S(b1-4)GlcNAc
# Summary of the method: as §1
# [16] = target: Fuc(a1-2)Gal6S(b1-3)GlcNAc
# Summary of the method: as §1
# [17] = target: Fuc(a1-2)Gal6S(b1-3)GlcNAc6S
# Summary of the method: as §1
# Fuc(a1-2)Gal6S(b1-4)Glc = target: Fuc(a1-2)Gal6S(b1-4)Glc
# Summary of the method: as §1
# [18] = target: Fuc(a1-2)Gal6S(b1-4)Glc6S
# Summary of the method: as §1
# Fuc(a1-2)[Gal(a1-3)]Gal = target: Fuc(a1-2)[Gal(a1-3)]Gal
# Summary of the method: as §1
# [19] = target: Fuc(a1-2)[Gal(a1-3)]Gal(b1-3)GalNAc
# Summary of the method: as §1
# [20] = target: Fuc(a1-2)[Gal(a1-3)]Gal(b1-3)GalNAc(b1-3)Gal(a1-4)Gal(b1-4)Glc
# Summary of the method: as §1
# [21] = target: Fuc(a1-2)[Gal(a1-3)]Gal(b1-3)GlcNAc
# Summary of the method: as §1
# [22] = target: Fuc(a1-2)[Gal(a1-3)]Gal(b1-3)GlcNAc(b1-2)Man(a1-3)[Fuc(a1-2)[Gal(a1-3)]Gal(b1-3)GlcNAc(b1-2)Man(a1-6)]Man(b1-4)GlcNAc(b1-4)GlcNAc
# Summary of the method: as §1
# [23] = target: Fuc(a1-2)[Gal(a1-3)]Gal(b1-3)GlcNAc(b1-2)Man(a1-3)[Fuc(a1-2)[Gal(a1-3)]Gal(b1-3)GlcNAc(b1-2)Man(a1-6)]Man(b1-4)GlcNAc(b1-4)[Fuc(a1-6)]GlcNAc
# Summary of the method: as §1
# [24] = target: Fuc(a1-2)[Gal(a1-3)]Gal(b1-3)GlcNAc(b1-3)GalNAc
# Summary of the method: as §1
# [25] = target: Fuc(a1-2)[Gal(a1-3)]Gal(b1-3)GlcNAc(b1-6)GalNAc
# Summary of the method: as §1
# [26] = target: Fuc(a1-2)[Gal(a1-3)]Gal(b1-4)Glc
# Summary of the method: as §1
# [27] = target: Fuc(a1-2)[Gal(a1-3)]Gal(b1-4)GlcNAc
# Summary of the method: as §1
# [28] = target: Fuc(a1-2)[Gal(a1-3)]Gal(b1-4)GlcNAc(b1-2)Man
# Summary of the method: as §1
# [29] = target: Fuc(a1-2)[Gal(a1-3)]Gal(b1-4)GlcNAc(b1-2)Man(a1-3)[Fuc(a1-2)[Gal(a1-3)]Gal(b1-4)GlcNAc(b1-2)Man(a1-6)]Man(b1-4)GlcNAc(b1-4)GlcNAc
# Summary of the method: as §1
# [30] = target: Fuc(a1-2)[Gal(a1-3)]Gal(b1-4)GlcNAc(b1-2)Man(a1-3)[Fuc(a1-2)[Gal(a1-3)]Gal(b1-4)GlcNAc(b1-2)Man(a1-6)]Man(b1-4)GlcNAc(b1-4)[Fuc(a1-6)]GlcNAc
# Summary of the method: as §1
# [31] = target: Fuc(a1-2)[Gal(a1-3)]Gal(b1-4)GlcNAc(b1-3)GalNAc
# Summary of the method: as §1
# [32] = target: Fuc(a1-2)[Gal(a1-3)]Gal(b1-4)GlcNAc(b1-3)[Fuc(a1-2)[Gal(a1-3)]Gal(b1-4)GlcNAc(b1-6)]GalNAc
# Summary of the method: as §1
# [33] = target: Fuc(a1-2)[Gal(a1-3)]Gal(b1-4)GlcNAc(b1-6)GalNAc
# Summary of the method: as §1
# [34] = target: Fuc(a1-2)[Gal(a1-3)]Gal(b1-4)[Fuc(a1-3)]Glc
# Summary of the method: as §1
# [35] = target: Fuc(a1-2)[Gal(a1-3)]Gal(b1-4)[Fuc(a1-3)]GlcNAc
# Summary of the method: as §1
binder,measurement,setting,value
B1,glycan array binding signal (z-score),[1],-0.171
same,glycan array binding signal (z-score),[2],-0.173
same,glycan array binding signal (z-score),[3],-0.175
same,glycan array binding signal (z-score),[4],-0.17
same,glycan array binding signal (z-score),[5],-0.173
same,glycan array binding signal (z-score),[6],7.25
same,glycan array binding signal (z-score),[7],-0.173
same,glycan array binding signal (z-score),[8],-0.177
same,glycan array binding signal (z-score),[9],-0.172
same,glycan array binding signal (z-score),[10],-0.168
same,glycan array binding signal (z-score),[11],-0.172
same,glycan array binding signal (z-score),[12],-0.171
same,glycan array binding signal (z-score),[13],-0.165
same,glycan array binding signal (z-score),[14],-0.171
same,glycan array binding signal (z-score),[15],-0.177
same,glycan array binding signal (z-score),[16],-0.175
same,glycan array binding signal (z-score),[17],-0.154
same,glycan array binding signal (z-score),Fuc(a1-2)Gal6S(b1-4)Glc,-0.173
same,glycan array binding signal (z-score),[18],-0.179
same,glycan array binding signal (z-score),Fuc(a1-2)[Gal(a1-3)]Gal,-0.171
same,glycan array binding signal (z-score),[19],-0.175
same,glycan array binding signal (z-score),[20],-0.172
same,glycan array binding signal (z-score),[21],-0.172
same,glycan array binding signal (z-score),[22],-0.176
same,glycan array binding signal (z-score),[23],-0.175
same,glycan array binding signal (z-score),[24],-0.174
same,glycan array binding signal (z-score),[25],2.7
same,glycan array binding signal (z-score),[26],-0.172
same,glycan array binding signal (z-score),[27],-0.17
same,glycan array binding signal (z-score),[28],-0.177
same,glycan array binding signal (z-score),[29],-0.165
same,glycan array binding signal (z-score),[30],-0.171
same,glycan array binding signal (z-score),[31],-0.176
same,glycan array binding signal (z-score),[32],-0.163
same,glycan array binding signal (z-score),[33],-0.177
same,glycan array binding signal (z-score),[34],-0.177
same,glycan array binding signal (z-score),[35],-0.178
